From the RNAGym collection of RNA variant scans (doi:10.7554/elife.90254)
Read counts are not given, so values of variants with three or more changes are uncertain.

B1: LINE1-mini (parent)
chain: GGCAGAGCUCAACACAGCGUGGCAAAGUGGCUGUGGCUAGACUGCC

Variants of: B1
Assay: self-cleavage, relative activity (ratio to wild type); higher = more cleavage; in vitro, sequencing; the parent is a self-cleaving ribozyme

Variant	self-cleavage
GGCAGCGCUCAAAACAGCGUGGCAAUGUGGCUGUGGCUAGACUGCC	0.32
UGCAGAGCUCAACACAGCGUGGCAAAGUGGCGGGGGCUAGACUGCC	0.01
GGCAGCGCUCGACACAGCGUGGCAAAGUGGCUAUGGCAAGACUGCC	0.01
GGCAGAGCUCAACACAGCGCGUCAAAGUGGCUGUGGCUAGAGUGCC	0.01
GGCAGAGCUCAACACGGCGGGGCAAAGUGACUGUGGCUAGACUGCC	0.02
GGCAGAGCUCAACCCAUCGUGGCAGAGUAGCUGUGGCCAGACUGCC	0.08
GGCAGAGCUCAACAUUGGGUGGCAAGGUGGCUGUGGCUAGACUGCC	0.01
GGCAGAGCUCAACACACCUUGGCAAAGUGGCUGUGUAUAGACUGCC	0.12
GGCAGAGCUCAACACAGCGUGGCAAAGUGGCUGUUACUAGACGGCC	0.2
GGCAGACCUCAACAUGGCGUGGCAAAGUGGCUGUGGCUAGACUGCC	0.05
GGCAGAGCUCAGCACAGCGUGGCAAAGGGGCUGUGAGUAGACUGCU	0.02
GGCGGAGCUCAAAAAAGCGUGGCCAAGUGGCUGUGGCUAGACUGCC	0.02
GGCAUAGCUCAACACAGCGUUGCAAAUUGGCUGUGGCUAGACUGCC	0.33
GGCAGAGGUCGAUACAGCGUGGCAAAGUGACUGUGGCUAGACUGCC	0.02
GGCAGAGGUCAACACAGAGUGGCAAAGUGUCUGUGGCUAGACUGCC	0.08
GGCAGAGCUCAACACAGAGUGGCAGAGUGACUGUGGCUAGACUGCA	0.15
GACAGAGCUCAACACAGCGUGGCAAAGUCGCUGUGGCUAUACUGCC	0.19
GGGAGAGCUCAAUACAGCGUGGCAAUGUGGCUGUGGAUAGACUGCC	1.8
GUCAGAGCUCAACACAUCGUGGUAAAGUGGGUGUGGCUAGACUGCA	0.21
CGCAGAGCCAAACACAGCGUGGCAAGGUUGCUGUGGCUAGACUCCC	0
GGCAGAGCUCAACACAGCGUGGCAACGUGGCGGUAGCUAGACUGCC	0.06
AGCAGAGCUCAACACAGCGUAGCAAAGUGACUGCGUCUAGACUGCC	0.12
GGCAGAGCUCAACAAAGCGUGGAAGAGUGGCUGUGGCUAGACUGCC	0.1

Variant	self-cleavage
GGUGGAGCUCAACACAGCGCGGCAAAGUGGCUGUGGCUAGACUGCC	0.05
GGCAGACCUCAACACUGCGUGUCAAAGUGGCUGUGGCUAGACUGCC	0.07
GGCAGAUCUCGCCACAGCGUGGCAAAGUGGCUGUGGCUAGACUGCC	0.02
GGCAGAGCUCAUCACUGCGUGGUAAAGUGUCUGCGGCUAGACUGGC	0.05
GGCAGAGCUCAACACAGCUUAGCAAAGUGGCUGUUCCUAGACUGCC	0.26
GGCAGAGCUCAACACAGCGUGGCAAACUGCCUGUGGCUAUACUGCC	0.05
GGCAGAACUCAACACACCGUGGCAAAGUGGCUGUCGCUAGACUGCC	0.12
GGCAGAUCUCAACACAGGGUGGCAAAGUGGCUGAGUCUAGUCUGCC	0.02
GGCAGAGCCCGACACAGCGUGGCAAAGUGGCUGUGGCUUGACUGCC	0
GGCAGAGCUCAACAACGCCUGGCAGAGUGUCUGUGGCUAGACUGCC	0.02
GGCAAAGCUCAAAAGAGCGUGGCAAAGUGGCUGUGGCUAGACUGCC	0.1
GGCAGAGGUCAACACAGCGUGGCAAAUUGGCUGUGGGUAGACUGCC	0.05
GGCAGAGCUCAACACAGAGUGGCAAAGUGGCUGAGGCUAGACAGCC	0.06
GGCAGAGCUCCACACCGCGAGGCAAAGUUGCAGUCGCUAGACUGCU	0
GGCAGAGCUUAACACUGCGUGGCAAAGUGGCUGUGGCUAGACUGCA	0.13
GGCAGAGCUCAGCACAACGUGGCAAAGUGGAUUUGGCUAGACUGCC	0.07
GGCAGAGCUCACCACAGCGUGGCGAAGUGGCUGGGGCUAGACUGCC	0
GGCAGAGCUCAAGACAGCGUGGCAAAGUGGCGGAGGCUAGACUGCC	0.03
GGCAGAGCUCAACACAUCGUGGCCAAGUGGCUGUGAGUAGACUGAC	0.02
GGCCGAGCUCAACACAGCGUGGCAAAGUGGCUGUGGCUAAAGUGCC	0.02
GGCAGAGCUCAACACAGCGUGGCAGAGUGGACGUGGCUAGACUGUC	0.11
GGCAGAGCUCAACACAGCGUGGAAAAUGGGCUGUGGCAAGACUGCA	0.08
GGCAGAGCUCACCACAGUGUGGCAAAGUGGCUGAGGCUAGACUGCC	0.03

Variant	self-cleavage
GGCAACGCUAAACACAGCGUGACAAAUUGGCUGUAGCUAGACUGCC	0.01
GGCAGAGCUCAACACAGCGGGUCAAACUUGCUGUGGCUAGACUCCC	0.12
GGCAGAGCUCAACACAGCGUGGCAAAGUGGCUGCGGAUACACUGCC	0.14
GGCAGAGCUCAAAACAGCGUGGCAUAGUGGCUGUGCCCAGACUGCA	0.01
GCCAGAGCUCAACACAGCGUCGCAAAGUGGCUGUUGCUAUACUGCC	0.06
GUCAGAGCUCAACACGGCAUGGAAAAGUGGCUGUGGCUAGACCGCU	0.11
GGCAGAGCUCACCAAAGCGUGGAAAAGUGGCCGUGGCUAGACUAUC	0.04
GGCAGCCCUCAACACAGCGUGGCAAAGUGGGUGUGGCUAGACUGCC	0.17
GUCAGAGUUCAACACACUGUGGCACACUGGCUGUGGCUAGACUGCC	0.01
GGCCGAGCACAACACAGUGUGGCAAAGUGGCUGUGGCUAGACUGCC	0.21
AGCAGAGCUCAACACAGCGUGACAAUGUGGCUGUGGCAAGACUUCC	0.05
GGCAGUGCUCAACACCGCGUGGCAAAGUGGCUUUGGCUAAACUGCA	0
GGCUGAGCUCAAAUCAGCGUGGCAAAGUGCCUGUGGCUAGACUGCC	0.12
GGCAGAGAUCUACACAGCGUGGCAAAUUGGCUGCGGCCAGACUGCC	0.01
GGUAGAGCUAAACACAGCGUGGCAAAGUGGCUGUGGCUAGACUGUC	0.06
GUCAGCGCUCAACACAGCGUGGCAAAGUGGGUGUGUCUAGACUGGC	0.01
GGCAGAGCUCAACACACCGUAGCAAAGUCGCUGUGGCUAGACUGCC	1.33
GGCAGAGCUCAACACAGCGUAGCAAAGUGGCUGGGGCUAGACUUCC	0
GGCAGAGAUAAACACAGCGUGGCAAAGUGGCUGAGGCUAGCCUGCC	0.04
GGCAGAGCUCAACACCGCGUGGCAAAGUGGCUGUGGCUUGAUUGCC	0.01
GGCAGAGAGCAACACAGCGUAGCAAAGUGGCUGUGGCUAGACUGAC	0.15
GGCAGAGCUAAACACAGCUUGGCAAAGUGGCUUUGACUAGACUGCC	0.01
GGCAGAGCUCAACACCGCGAGGCAAAGUGGGUGUGGCUAGACUGCC	0.03

Variant	self-cleavage
AGCAGAGCUCAACACAGCGUGGCAGAGUGGCUGUGUCUAGACUGCC	0.03
GUCAGAGCUCACCACAGAGUGGCAAAGUAGGUGUGGCUAGACUGCC	0
GGCAGAGCUCAACAGUGCGUGGCAAAAUAGCUGUGGGUAGACUGCC	0.02
GGCAGAGCCCAACACAGCGUGACUAAGUGGCUGUGGCUAGACUGCC	0.02
GGUCGAGCUCAGCACAGCCUGGCAAAGUGACUGCGGCUAGACUGCC	0.01
GGCAGAGCUCAACACAGCGUGGCCAAGGGGCUGUGGAUAGACCGCC	0.01
UGCGGAGUUUAACACAACGUGGCAAAGUGGCUGUGGCUAGACUGCC	0.02
GGCAGAGCUCAAUACAGCUUGGCAAAGUGGCUGUCGCUAGACUGCC	0.08
GGCAGAGCUCAACAUAGCGUGGCCAAGUGGUUGUGGCUAGACUGCC	0.05
GGCACAGCUCAAAACAGCGUGGCAAUGUGGCUGUGGCUAGACUGCC	0.04
GGCAGCGAGCAACACAGCGUGACAAAGUGGAUGUGGGUAGAUUGCC	0.07
GGCAUAGCUCAACACAGCGUGGCAAAGUGGCUAUUGCUAGACUGCC	0.05
GGCACAGCUCAACUUAGCGUGGCUACGUGGCUAUGGCUAGACUGCC	0.04
GGCAGUGCUCACCACAGCGUCGCAAAGUGGCUGUGGCUAGACUGCC	0
GGCAGAGCUCAACACAGCGUGGCACUGUGGCUGUGGCUAGACCGCC	0.08
GGCAGAGCUCAACACAGCGUAGCUAAGUGGCUGUGGAUAGACUGCC	0.09
GGCAGAGCUCAACACAGCGUGGCACAGUGGGUGUGGCUAGCCUGCC	0.01
GGCAGAGCUCAGCACAGCGUGUCAAAGUGGCUGGGGCUAGACUGCC	0.05
GGCGGAGCUCAACAGAGCGUGGCAAAGUGGCUGUGGCUAGACUGAC	0.01
GGCACAGCUCAACACAGAGUGGCAAAGGGGCUGUGGCUAGACUGCC	0.01
GGCAGAGCUCAAAACAGCGUGGCGAAGUGGCUGUUGCUAAACUGCC	0.09
GGCAGAGCUGAACACAGCGUGGCGAUGUGGCUCUGGCUAGACUGCC	0.02
GGCAGAGAUCUACACAGCGUGGCAAAGUGGCUGUGGCUAGAAUGCC	0.01

Variant	self-cleavage
GGCAGAGCUCAAGACAGCGUGGCAAAGUGGCCGUGGGUAGACUGCC	0.08
GGCAGAGAUCAACUCAGCGUGGCAAAAUGGCUGUGGCUAGACUGCC	0.23
GGCACAGCCCAAAACAGCGUGGCAAAGUGGCUGUGGCUAGACUGCC	0.03
GGCAGAGCUCCACACAGCGUGGCAAAGUGGCUGCGACUAAACUGCC	0
GGCAGAGCUCAAAACAGCGUGGGAAAGUGGCUCUGGCUAGAAUGCC	0.04
GUCAGAGCUCGACACUGAGUGGCAAAGUGGCUGUGGCUAGACUGCC	0.01
GGCAGAGCUCGACACAGCGUAGCAAAGUGGCUUUAGCUAGACAACC	0
GGCAGAGCUCAACACAGCUUGGCAAAGCGCCUGUGGAUAGACUGCC	0.01
GGCAGAGUUCAACACCGCGAGGCAACGUGGCUGUGGCUAAACUGCC	0.02
GGCAGAGCUCAACUCAGCGUGUCAAAGUGGAUGUCGCUAGACUGCC	0.11
GCGAGAUCUCAACUCAGCGUGGCAAAGUAGAUGUGGCUAGACUGCC	0.24
GGCAGAGCUCAACGCAGAGUGGCAAAGUGGCUGUGGCUGGACUGCC	0.56
GCCACAGCUCAACACAGCGUGGUAAAGUGGCUGUGGCUAGACUGCC	0.05
GGCAGAGCUAAACACAGGGUGUCAAAGUGGCUGUGGCUAGACUGUC	0.07
GUCAGAGCUCAACACAGCGUGGCAAAGUGGCUGCGGCUAGUCUGAC	0.04
GGCAGAGCGCAACACAGCGUGGCAAAGGGGCUGUGGCAAGACUGCC	0.02
GGCAGAGCUCAUCACAGCGAGGCAAAGUGGCUGUGACUAGGCUGCC	0.05
GGCAGAGCUCAUCAGAGCGUGGAAAAGUGGCUGUGGCUAGAUUGCC	0.01
CGCAGAGCUCAACACAGCGUGGCAAAUUGGCUGUGGCUAGACUGAC	0.17
GACAGGGCUCAACAUAGCUUGGAAAAGUGGCUGUGGCUAGCCUGGC	0.04
